Test results as given in PubChem BioAssay AID1461 (National Center for Advancing Translational Sciences (NCATS), 2008).
Hit rate of the full screen: of about 220,000 compounds, about 2,300 (1%) were called active. The shares of active, inactive and inconclusive entries below differ from those in the screen. Calls come from the whole dose curve; as a rule, active = well fitted inhibition curve with a large enough effect; inconclusive = small, poorly fitted or top-dose-only effect, or effect the other way; inactive = no such curve, though single readings can be large or run the other way. Potencies of inconclusive entries are left out as doubtful fits.

Target: Neuropeptide S receptor (Homo sapiens) (UniProt Q6W5P4)
Chain of UniProt Q6W5P4 (Q6W5P4 whole entry, looked up): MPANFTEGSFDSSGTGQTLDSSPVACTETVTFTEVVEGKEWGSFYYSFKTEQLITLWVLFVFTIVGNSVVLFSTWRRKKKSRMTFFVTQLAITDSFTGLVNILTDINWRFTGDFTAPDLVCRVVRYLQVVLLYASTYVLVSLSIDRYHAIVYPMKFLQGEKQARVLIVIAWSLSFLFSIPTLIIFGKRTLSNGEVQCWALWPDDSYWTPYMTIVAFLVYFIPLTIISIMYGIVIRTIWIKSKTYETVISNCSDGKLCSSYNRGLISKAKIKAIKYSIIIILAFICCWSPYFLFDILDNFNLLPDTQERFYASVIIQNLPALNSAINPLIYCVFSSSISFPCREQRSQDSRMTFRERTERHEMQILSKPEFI
Assay: qHTS Assay for Antagonists of the Neuropeptide S Receptor: cAMP Signal Transduction; note: nearly all actives have a fitted effect of over 50% in size
Details: CHO-NPSR cells, cAMP TR-FRET, antagonist mode; series mostly up to 38.3 µM
Potency is the fitted concentration of half-maximal effect; tags give direction and shape of the fitted curve.

Row | Structure (SMILES) | Potency
1 | CCOc1ccc2[nH]c(=O)c(CN(Cc3ccc(F)cc3)C(=O)c3ccco3)cc2c1 | inconclusive [inhibitor, single point]
2 | CCOC(=O)C1=C(C)N=c2s/c(=C/c3ccccc3)c(=O)n2C1c1ccc(OC)c(OC)c1 (stereo not given) | inconclusive [inhibitor, partial curve]
3 | Cc1sc(NC(=O)c2ccco2)c(CN2CCN(c3ccc(F)cc3)CC2)c1C | inconclusive [inhibitor, single point]
4 | CC(C)(C)n1nnnc1C(c1ccccc1)N1CCc2ccccc2C1 (stereo not given) | inconclusive [inhibitor, partial curve]
5 | CC1CCCCN1C(=O)/C=C/c1ccccc1[N+](=O)[O-] (stereo not given) | inactive
6 | Cc1ccc(C)c(-c2cc(C(=O)Nc3sc(C)c(C)c3C(N)=O)c3ccccc3n2)c1 | inconclusive [inhibitor, single point]
7 | CCN(C(=O)c1cnc(OC)cc1C(F)(F)F)c1ccc(Cl)cc1 | inconclusive [activator, single point]
8 | COc1cccc(-n2c([S-])c(C(=O)Nc3ccc(C(F)(F)F)cc3)[n+]3ccccc23)c1 | inactive
9 | CCOC(=O)c1sc(NC(=O)c2cc3c(s2)CCC(C)C3)nc1C (stereo not given) | inconclusive [inhibitor, single point]
10 | N#CC1=C(N)OC(c2ccccc2)=C(C#N)C1c1ccc2c(c1)OCO2 (stereo not given) | inconclusive [inhibitor, single point]
11 | O=C(CCSCc1ccccc1Cl)N1CCN(c2cccc(Cl)c2)CC1 | inconclusive [inhibitor, partial curve]
12 | CC(=O)NC(NC(C)=O)c1ccc(Br)cc1 | inactive
13 | CC1CCCN(C(=O)c2ccc3c(=O)n(C4CCCC4)c(=S)[nH]c3c2)C1 (stereo not given) | inconclusive [inhibitor, single point]
14 | COC(=O)c1sccc1NC(=O)CSc1nnnn1-c1ccccc1C | inconclusive [inhibitor, single point]
15 | Nc1ncc(-c2ccccc2)c(-c2ccc(OCc3ccccc3)cc2O)n1 | inconclusive [activator, single point]
16 | O=C(O)C1CCC(Cn2c(SCc3cc(=O)n4cc(Br)ccc4n3)nc3ccsc3c2=O)CC1 (stereo not given) | active: 7.94 µM
17 | Cc1cc2c(NC(=O)CCCC(=O)O)cccc2nn1 | inactive
18 | O=C(Nc1ccc2oc(-c3cccnc3)nc2c1)c1ccc(Br)o1 | inconclusive [inhibitor, single point]
19 | COc1ccc(C2c3[nH]c4ccccc4c3CCN2Cc2cccn2-c2ncccn2)cc1C (stereo not given) | inconclusive [activator, single point]
20 | Cc1cccc(-[n+]2c(-c3cccc(Br)c3)[nH]c3nc4ccccc4nc32)c1 | active: 10 µM
21 | Cc1ccccc1NC(=O)N1CCCC(c2nc(-c3ccc(C(C)C)cc3)no2)C1 (stereo not given) | inconclusive [inhibitor, partial curve]
22 | CN(C)C(=O)c1ccc(Oc2ccc(C(=O)N(C)C)cc2)cc1 | inactive
23 | O=S1(=O)Nc2c(ccc3cccnc23)-c2ccccc21 | active: 3.16 µM
24 | COc1ccc(CNC[C@@H](CCCCN(C)Cc2ccc(OC)cc2)N2C[C@H](c3ccccc3)N(CCc3ccc(Cl)c(Cl)c3)C(=O)C2=O)cc1 | inconclusive [activator, single point]

Row | Structure (SMILES) | Potency
25 | Cc1cc(C)c2c(N)c(-c3nc4ccccc4[nH]3)sc2n1 | inactive
26 | Cc1ccc(CSc2ccc(-c3ccco3)nn2)cc1 | inactive
27 | O=C(O)c1cc(-c2ccc(/C=C3/SC(=S)N(Cc4ccccc4)C3=O)o2)ccc1Cl | active: 10 µM
28 | O=C(CSCc1ccccc1)Nc1ccc(Cl)cn1 | inactive
29 | CSc1nc(N)c2ncn([C@@H]3O[C@H](COP(=O)(O)OP(=O)(O)O)[C@H](O)[C@H]3O)c2n1 | inconclusive [activator, single point]
30 | Cc1ccc(-n2cc(CN3CCNC(=O)CC3)c(-c3ccc(F)cc3)n2)cc1 | inconclusive [inhibitor, single point]
31 | COc1ccc(NC(=O)CSc2nc3[nH]ncc3c(=O)n2-c2ccccc2C)cc1OC | inactive
32 | CCOC(=O)c1nn(-c2ccc(C)cc2)cc1C(=O)c1ccccc1 | inconclusive [inhibitor, partial curve]
33 | O=C1CC(/C=C/c2ccco2)=Nc2ccccc2N1 | inconclusive [inhibitor, single point]
34 | CCC(C)NCC(=O)Nc1sc2c(c1C(N)=O)CCC2 (stereo not given) | inconclusive [inhibitor, single point]
35 | CCn1c(O)c(N=NC(=O)CNC(=O)c2ccco2)c2ccccc21 | inactive
36 | CCN(CC)c1ccc2cc(-c3nc4ccccc4[nH]3)c(=O)oc2c1 | inconclusive [inhibitor, single point]
37 | Cc1ccc(C2CC(c3ccccc3)=NN2C(=S)Nc2ccccc2)o1 (stereo not given) | inconclusive [inhibitor, partial curve]
38 | CCN(CC)C(=O)c1sc(NC(=O)c2cc(-c3ccc(C)s3)nc3ccccc23)c(C(=O)OC)c1C | inconclusive [inhibitor, partial curve, poor fit]
39 | CC(C)(C)C(=O)/C=c1\[nH]c(=O)/c(=C\c2ccc(F)cc2)s1 | inconclusive [inhibitor, single point]
40 | COC(=O)c1ccc(C#Cc2ccccc2)o1 | inactive
41 | S=C(Nc1ccc(Cl)cc1)Nc1cccc2cnccc12 | inactive
42 | O=Cc1[nH]c2ccccc2c1N(C(=O)CCl)c1ccccc1 | inconclusive [inhibitor, single point]
43 | CC(O)CNc1cc(N)c([N+](=O)[O-])cc1[N+](=O)[O-] (stereo not given) | inactive
44 | O=C(CN1C(=O)c2ccccc2C1=O)Nc1nc(-c2cccc([N+](=O)[O-])c2)cs1 | inactive
45 | Cc1onc(-c2ccccc2)c1C(=O)N(Cc1ccco1)Cc1cccs1 | inconclusive [inhibitor, single point]
46 | COC(=O)c1cc(=O)n(Cc2ccco2)c(=Nc2ccc(F)cc2)s1 | inconclusive [activator, partial curve]
47 | Cc1ccc(C(=O)Nc2ccc3cn[nH]c3c2)cc1S(=O)(=O)N1CCCCC1 | inconclusive [inhibitor, single point]
48 | CC(=O)Nc1sc(NC(=O)c2ccccc2)nc1-c1cccs1 | inactive

Row | Structure (SMILES) | Potency
49 | CC1=CS/C(=C(/C#N)C(=O)NCc2ccco2)N1c1ccccc1 | inactive
50 | Cc1cccc(CS(=O)(=O)Cc2ccc(C(=O)NCc3ccco3)o2)c1 | inactive
51 | COc1ccc(-c2nc3nc(SC)nn3cc2C)cc1F | inconclusive [inhibitor, single point]
52 | COc1ccc(-n2nccc2-c2nn(-c3cccc(OC)c3)c(=O)n(C)c2=O)cc1 | inconclusive [activator, partial curve]
53 | O=C(CSc1nn(-c2ccc(Cl)cc2)c(=S)s1)N1CCN(C(=O)c2ccco2)CC1 | inconclusive [inhibitor, single point]
54 | Cc1c(-c2nc(N)nc(Nc3ccccc3F)n2)oc2ccccc12 | inconclusive [inhibitor, single point]
55 | CC(=O)c1ccc(C(=O)N2CCc3c([nH]c4ccccc34)C2c2cccc(C)n2)s1 (stereo not given) | inconclusive [inhibitor, single point]
56 | CCOc1ccc(OCc2ccc(C(=O)OCc3ccccn3)o2)cc1 | inactive
57 | COc1ccccc1CNc1cc(CSc2ccc(Cl)cc2)nc(C)n1 | inconclusive [inhibitor, partial curve]
58 | CCN(CC)c1ccc(NC(=O)c2cc(Cl)ccc2OC)cc1 | inconclusive [inhibitor, single point]
59 | O=[N+]([O-])c1cc([N+](=O)[O-])c2cccnc2c1Oc1ccccc1O | inconclusive [activator, single point]
60 | O=C(O)c1ccc(N/N=C/c2ccc(-c3ccccc3)cc2)cc1 | inactive
61 | COc1ccc(OC)c(S(=O)(=O)N(C)CC(=O)N2CCN(c3cccc(Cl)c3)CC2)c1 | inconclusive [inhibitor, partial curve]
62 | CC(C)[C@H](NC(=O)c1ccco1)C(=O)OCC(=O)c1ccc2c(c1)NC(=O)CO2 | inactive
63 | CCOC(=O)c1ccc(NS(=O)(=O)c2ccc(SC)cc2)cc1 | inconclusive [inhibitor, single point]
64 | CC1CC(C)CN(C(=O)c2ccc3c(c2)N(Cc2ccccc2)CCS3)C1 (stereo not given) | inconclusive [inhibitor, full curve]
65 | C=C(C)COc1ccc(-c2nc(N)nc(C)c2Oc2ccccc2OC)c(O)c1 | inactive
66 | Cc1ccc(CNC(=O)CSc2nc3c(sc4ccccc43)c(=O)n2CCCN2CCCC2)cc1 | inconclusive [inhibitor, single point]
67 | CC(C)Cn1cnc2c(c(-c3ccccc3)c(-c3ccccc3)n2Cc2ccco2)c1=N | inconclusive [inhibitor, single point]
68 | CC(C)n1c(/N=C/c2c[nH]c3ccccc23)nc2ccccc21 | inconclusive [inhibitor, single point]
69 | COc1ccc(/C=N/NC(=S)Nc2ccccc2)cc1COc1cccc(C)c1C | inconclusive [inhibitor, single point]
70 | Fc1ccc(CSc2nsc(SCc3ccc(F)cc3)n2)cc1 | inconclusive [inhibitor, single point]
